This is an account of results in the antibiotic and cytotoxicity screens of Wong et al. (2023).

The test system of assay [1] is HSkMC (human skeletal muscle cells). The assay is described as follows: cytotoxicity call (relative viability < 0.9). The settings on record: 10 µM.
Assay [2] relates to HepG2. The assay is described as follows: cytotoxicity call (relative viability < 0.9). The settings on record: 10 µM.
For assay [3], the system named is S. aureus RN4220. The assay is described as follows: growth inhibition call (relative growth <= 0.2). The following applies: 50 µM.

The list shows a part of the results.

Turning to `CS(=O)(=O)N1CCCN(C(=O)CN2C(=O)COc3ccccc32)CC1`, the cytotoxicity call in assay [1] and in assay [2] was “inactive” in each case. Further, in assay [3], the growth inhibition call was “inactive”.

With `NC(=O)c1ccccc1F`, the cytotoxicity call in assay [1] and in assay [2] was “inactive” each time. Further, the growth inhibition call in assay [3] is “inactive”.

For `Cc1ccc(S(=O)(=O)Nc2ccc3c(c2)C(=O)N(C)[C@H]2CC[C@H](CC(=O)NCCc4ccncc4)O[C@H]2CO3)cc1`, the cytotoxicity call in assay [1] and in assay [2] was “inactive” throughout. For the same molecule, in assay [3], the growth inhibition call is “inactive”.

As to `CC(C)=CCC[C@@H](C)CCO`, the cytotoxicity call in assay [1] and in assay [2] was “inactive” throughout. The growth inhibition call in assay [3] is “inactive”.

Take `C[C@H]1CN([C@@H](C)CO)C(=O)c2cc(C#CC3CCCC3)cnc2O[C@@H]1CN(C)S(=O)(=O)c1cccc(F)c1`: in assay [1], the cytotoxicity call was “inactive”. The cytotoxicity call in assay [2] was “active”. Besides, the growth inhibition call in assay [3] was “inactive”.

In the case of `C[C@@H]1CCCCO[C@H](CN(C)CC2CCCCC2)[C@H](C)CN([C@@H](C)CO)C(=O)c2cc(NC(=O)c3ccccc3)ccc2O1`, the cytotoxicity call in assay [1] and in assay [2] was “inactive” each time. In assay [3], the growth inhibition call was “inactive”.

For the molecule `CO[C@@H]1CN(C)C(=O)c2ccc(NC(=O)CN(C)C)cc2OC[C@@H](C)N(C(=O)c2ccncc2)C[C@H]1C`, the cytotoxicity call in assay [1] and in assay [2] was “inactive” throughout. Moreover, the growth inhibition call in assay [3] was “inactive”.

For the molecule `C[C@@H]1CCCCO[C@H](CN(C)C(=O)C2CCCCC2)[C@@H](C)CN([C@H](C)CO)C(=O)c2cc(NC(=O)CCC(F)(F)F)ccc2O1`, the cytotoxicity call in assay [1] and in assay [2] was “inactive” in each case. For the same molecule, in assay [3], the growth inhibition call is “inactive”.

With `O=C(C[C@H]1CC[C@H](NC(=O)CN2CCOCC2)[C@@H](CO)O1)NC1CCC1`, the cytotoxicity call in assay [1] and in assay [2] was “inactive” each time. The growth inhibition call in assay [3] was “inactive”.

Take `C[C@@H]1CN([C@H](C)CO)C(=O)c2cc(NC(=O)Nc3cccc4ccccc34)ccc2O[C@H]1CN(C)Cc1ccc(C(=O)Nc2ccccc2N)cc1`: the cytotoxicity call in assay [1] and in assay [2] was “inactive” each time. In assay [3], the growth inhibition call was “inactive”.

In the case of `CC(C)(O)c1cn(-c2ccc(-c3cccc(S(C)(=O)=O)c3)cc2)c(C(C)(C)c2ccccc2Cl)n1`, the cytotoxicity call in assay [1] and in assay [2] was “inactive” throughout. Moreover, in assay [3], the growth inhibition call is “inactive”.

For the molecule `C[C@@H]1CCCCO[C@H](CN(C)C(=O)Cc2ccccc2)[C@@H](C)CN([C@@H](C)CO)C(=O)c2cc(NC(=O)CCC(F)(F)F)ccc2O1`, the cytotoxicity call in assay [1] and in assay [2] was “inactive” each time. In addition, the growth inhibition call in assay [3] is “inactive”.

For the molecule `COCC(=O)Nc1ccc2c(c1)OC[C@@H](C)N(C(=O)c1ccccc1F)C[C@H](C)[C@@H](OC)CN(C)C2=O`, the cytotoxicity call in assay [1] and in assay [2] was “inactive” throughout. In addition, in assay [3], the growth inhibition call is “inactive”.

With `CCCCC/C=C\C/C=C\CCCCCCCC(=O)O`, the cytotoxicity call in assay [1] and in assay [2] was “inactive” each time. For the same molecule, the growth inhibition call in assay [3] is “inactive”.

As for `O=C(C[C@@H]1CC[C@@H]2[C@H](COC[C@H](O)CN2C(=O)Nc2cccc(Cl)c2)O1)NCCCN1CCOCC1`, the cytotoxicity call in assay [1] and in assay [2] was “inactive” throughout. Moreover, in assay [3], the growth inhibition call is “active”.

On to `COc1ccccc1C(=O)Nc1ccc2c(c1)C(=O)N(C)[C@H]1CC[C@H](CC(=O)Nc3cccc(C(C)C)c3)O[C@@H]1CO2`, for which the cytotoxicity call in assay [1] and in assay [2] was “inactive” in each case. Moreover, the growth inhibition call in assay [3] was “inactive”.

As to `COc1cc(C(=S)N2CCOCC2)ccc1O`, the cytotoxicity call in assay [1] and in assay [2] was “inactive” throughout. In assay [3], the growth inhibition call was “inactive”.

Take `Cc1noc(C)c1NC(=O)Nc1ccc2c(c1)CC(=O)N([C@@H](C)CO)C[C@@H](C)[C@@H](CN(C)S(=O)(=O)c1cccs1)O2`: the cytotoxicity call in assay [1] and in assay [2] was “inactive” throughout. Besides, the growth inhibition call in assay [3] was “inactive”.

On to `CCC(=O)N1C[C@]2(C1)CN([C@H](CO)c1[nH]c3cc(ccc3c12)OC)S(=O)(=O)C`, for which the cytotoxicity call in assay [1] and in assay [2] was “inactive” each time. In addition, the growth inhibition call in assay [3] is “inactive”.

For the molecule `CC(C)NC(=O)Nc1cccc2c1O[C@H](CN(C)Cc1ccc(-c3ccccc3)cc1)[C@@H](C)CN([C@@H](C)CO)C2=O`, in assay [1], the cytotoxicity call was “inactive”. In addition, the cytotoxicity call in assay [2] is “active”. Moreover, the growth inhibition call in assay [3] was “inactive”.

As for `C[C@@H]1CN([C@@H](C)CO)C(=O)c2cc(NS(=O)(=O)c3cn(C)cn3)ccc2O[C@@H]1CN(C)Cc1ccc(C(=O)O)cc1`, the cytotoxicity call in assay [1] and in assay [2] was “inactive” each time. Moreover, the growth inhibition call in assay [3] is “inactive”.

Consider `C[C@@H]1CN([C@@H](C)CO)C(=O)Cc2cc(NS(C)(=O)=O)ccc2O[C@@H]1CN(C)Cc1ccc(C(=O)O)cc1`, for which the cytotoxicity call in assay [1] and in assay [2] was “inactive” throughout. Moreover, in assay [3], the growth inhibition call is “inactive”.

With `COc1ccc(NC(=O)N(C)C[C@@H]2Oc3c(NC(=O)c4ccc(-c5nccs5)cc4)cccc3C(=O)N([C@H](C)CO)C[C@@H]2C)cc1`, the cytotoxicity call in assay [1] and in assay [2] was “inactive” each time. The growth inhibition call in assay [3] is “inactive”.

With `C[C@@H]1CN([C@@H](C)CO)C(=O)c2cccc(NC(=O)C3CCOCC3)c2O[C@H]1CN(C)C(=O)Nc1ccc2c(c1)OCO2`, the cytotoxicity call in assay [1] and in assay [2] was “inactive” throughout. The growth inhibition call in assay [3] was “inactive”.

In the case of `C[C@@H]1CN([C@@H](C)CO)C(=O)c2cc(NS(C)(=O)=O)ccc2O[C@H]1CN(C)Cc1ccc(C(=O)Nc2ccccc2N)cc1`, the cytotoxicity call in assay [1] and in assay [2] was “inactive” in each case. Besides, in assay [3], the growth inhibition call was “inactive”.

In the case of `C[C@@H]1CCCCO[C@H](CN(C)C(=O)Nc2cccc3ccccc23)[C@H](C)CN([C@@H](C)CO)C(=O)c2cc(NS(=O)(=O)c3ccc(Cl)cc3)ccc2O1`, the cytotoxicity call in assay [1] and in assay [2] was “inactive” throughout. Also, the growth inhibition call in assay [3] is “inactive”.

As for `CN(C)C(=O)CN1CCn2cc(Cn3cncn3)nc2C1`, the cytotoxicity call in assay [1] and in assay [2] was “inactive” throughout. In addition, the growth inhibition call in assay [3] was “inactive”.

For `CCC(=O)N[C@@H]1C=C[C@H](CC(=O)OC)O[C@@H]1CO`, the cytotoxicity call in assay [1] and in assay [2] was “inactive” in each case. In addition, in assay [3], the growth inhibition call is “inactive”.

For the molecule `CCCCCN(C)CCC(O)(P(=O)([O-])O)P(=O)(O)O.O.[Na+]`, the cytotoxicity call in assay [1] and in assay [2] was “inactive” throughout. Further, the growth inhibition call in assay [3] was “inactive”.
